# Test results from PubChem BioAssay (NCATS).
# Several values for one entry are separate records, joined by “and”; a condition that tells them apart may be missing. Equal entries are not always repeated. The shares of active, inactive and inconclusive entries below differ from those in the screen. For part of these data: Where the call is inconclusive, the potency comes from a doubtful curve fit. Some compounds were tested as several samples or in several runs, with calls that do not always agree. Activity calls are given as the source filed them. Calls follow the shape of the dose curve; as a rule, active = well fitted curve in the direction sought with a large enough effect; inconclusive = small, poorly fitted or top-dose-only effect, or another doubt; inactive = no such curve, though single readings can be large; an effect the other way counts as inactive or inconclusive.
# How the values were obtained:
# [1] = NS1 protein of Zika virus - qHTS assay to identify small molecule inhibitors in human HEK 293 cells (AID 1347053); also: nearly all actives have a fitted effect of over 55% in size
# Method in brief: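 Read-out is a two-antibody TR-FRET for ZIKV NS1, normalized between uninfected cells and infected cells. Compound added 1 h before MR766 infection at MOI 0.5; human HEK 293 cells incubated 24 h, 37 C.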
# [2] = qHTS of pediatric cancer cell lines to identify multiple opportunities for drug repurposing: Primary screen for DAOY cells (AID 1347090); settings: DAOY medulloblastoma viability, CellTiter-Glo luminescence, 48 h; activity change, negative = cytotoxic: at 46 µM (top of the series); also: nearly all actives have a fitted effect of over 55% in size
# Method in brief: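 Eight- or eleven-point concentration series, 48 h treatment at 37 degrees C in growth media; readout CellTiter-Glo luminescence. Potency and efficacy were taken from the concentration-response curves.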
# [3] = qHTS of pediatric cancer cell lines to identify multiple opportunities for drug repurposing: Primary screen for BT-37 cells (AID 1347094)
# Method in brief: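 Following a 5-hour attachment period, cells at 500-1,000/well received compounds and were cultured for 48 hours. CellTiter-Glo was added and luminescence read to estimate viable, metabolically active cells.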
# [4] = qHTS of pediatric cancer cell lines to identify multiple opportunities for drug repurposing: Primary screen for U-2 OS cells (AID 1347096); also: nearly all actives have a fitted effect of over 50% in size
# Method in brief: (§1)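 Cells (500-1,000/well) in growth media were settled 5 h at 37 degrees C, then given compounds for 48 h. Viability was read as CellTiter-Glo luminescence. Primary runs used MIPE at 11 points (0.78 nM-46 µM) and NPC at 8 points (0.59 nM-46 µM); follow-ups used 11 points.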
# [5] = qHTS of pediatric cancer cell lines to identify multiple opportunities for drug repurposing: Primary screen for LAN-5 cells (AID 1347100)
# Method in brief: as §1
# HaCat = test: Cytotoxic Profiling of Annotated Libraries Using Quantitative High-Throughput Screening (AID 1296008); settings: Five cell lines viability, CellTiter-Glo ATP luminescence, 48-72 h; max response: stronger effect = lower value; also: nearly all actives have a fitted effect of over 60% in size; as to max response: % is scaled to controls: 0 for no effect and ±100 for the full control effect
# Method in brief: (§2)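 Compounds were pin-transferred onto cells and incubated 48 or 72 hr at 37 degree Celsius, 95% humidity. CellTiter-Glo was added, plates sat 10 min at room temperature, then ATP-coupled luminescence was imaged as the viability read-out.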
# KB-3-1 = test: as above; settings: Five cell lines viability, CellTiter-Glo ATP luminescence, 48-72 h; max response: stronger effect = lower value
# Method in brief: as §2
# NIH3T3 = test: as above; settings: Five cell lines viability, CellTiter-Glo ATP luminescence, 48-72 h; max response: stronger effect = lower value
# Method in brief: as §2
# MCC-13 = test: qHTS assay to identify novel small-molecules to repurpose for Merkel cell carcinoma treatment (AID 1296009); settings: MCC and control cell lines, CellTiter-Glo viability, 72 h; series mostly up to 46 µM; also: nearly all actives have a fitted effect of over 60% in size; as to activity change, negative = cytotoxicity: % is scaled to controls: 0 for no effect and ±100 for the full control effect
# Method in brief: (§3)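 Luminescence from CellTiter-Glo, read 10 min after addition at room temperature, reported viability following a 72 hr, 37 degree celsius treatment with NPC or MIPE compounds in titration; values normalized to plate controls.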
# MKL-1 = test: as above; settings: MCC and control cell lines, CellTiter-Glo viability, 72 h; activity change, negative = cytotoxicity: at 46 µM (top of the series)
# Method in brief: as §3
# WaGa = test: as above; settings: MCC and control cell lines, CellTiter-Glo viability, 72 h; series mostly up to 46 µM
# Method in brief: as §3
# SKOV3 = test: Primary qHTS to identify gynecologic anti-cancer compounds using libraries of approved drugs and bioactive compounds (AID 1345084); settings: Gynecologic cancer cell panel viability, ATPlite luminescence, 48 h; series mostly up to 57.5 µM; also: nearly all actives have a fitted effect of over 55% in size; as to activity change, negative = cytotoxicity: % is scaled to controls: 0 for no effect and ±100 for the full control effect
# Method in brief: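 Cells, 1,000 per well, were allowed to settle for 16 h at 37 C before compound addition. Five concentrations were tested for 48 h, and viability was read by ATPlite luminescence after 15 min at room temperature.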
# [6] = Quantitative High-Throughput drug screen in 47 multiple myeloma cell lines against the NCATS MIPE library collection: KMS34_JCRB cell viability assay (AID 1918985); also: nearly all actives have a fitted effect of over 40% in size
# Method in brief: (§4)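 Readout: median RLU from CellTiter-Glo after 5 min at room temperature. Preceding step was 48 h drug treatment of 500 cells/well at 37 °C, 5% CO2, with DMSO-only and media-only control wells.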
# [7] = Quantitative High-Throughput drug screen in 47 multiple myeloma cell lines against the NCATS MIPE library collection: SKMM1_PLB cell viability assay (AID 1919863); settings: SKMM1 myeloma viability, CellTiter-Glo ATP, 48 h; viability: stronger effect = lower value; also: nearly all actives have a fitted effect of over 35% in size
# Method in brief: as §4
# [8] = Quantitative High-Throughput drug screen in 47 multiple myeloma cell lines against the NCATS MIPE library collection: UTMC2_PLB cell viability assay (AID 1919868); settings: CellTiter-Glo ATP luminescence, 48 h; viability (% of DMSO control): at 45.8 µM (top of the series); also: nearly all actives have a fitted effect of over 55% in size
# Method in brief: as §4
# MKL-2 = test: qHTS assay to identify novel small-molecules to repurpose for Merkel cell carcinoma treatment (AID 1296009); settings: MCC and control cell lines, CellTiter-Glo viability, 72 h; activity change, negative = cytotoxicity: at 46 µM (top of the series); also: nearly all actives have a fitted effect of over 60% in size; as to activity change, negative = cytotoxicity: % is scaled to controls: 0 for no effect and ±100 for the full control effect
# Method in brief: as §3
# UISO = test: as above; settings: MCC and control cell lines, CellTiter-Glo viability, 72 h; activity change, negative = cytotoxicity: at 46 µM (top of the series)
# Method in brief: as §3
# [9] = Quantitative High-Throughput drug screen in 47 multiple myeloma cell lines against the NCATS MIPE library collection: Karpas417_ECACC cell viability assay (AID 1918961); settings: Karpas417 myeloma viability, CellTiter-Glo ATP luminescence, 48 h; viability (% of DMSO): at 45.8 µM (top of the series);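 as to viability (% of DMSO): 100% = DMSO only wells and 0% = media only wells without cells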
# Method in brief: (§5)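 Relative luminescence from CellTiter-Glo served as the viability signal, referenced to DMSO-treated (100%) and cell-free medium (0%) controls. Treatment lasted 48 hours at 37C with 500 cells per well.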
# [10] = Quantitative High-Throughput drug screen in 47 multiple myeloma cell lines against the NCATS MIPE library collection: KHM11_PLB cell viability assay (AID 1918962); settings: KHM11 myeloma cell viability, CellTiter-Glo ATP luminescence, 48 h; viability, % of DMSO control: at 45.8 µM (top of the series); also: nearly all actives have a fitted effect of over 35% in size
# Method in brief: as §5
# [11] = Quantitative High-Throughput drug screen in 47 multiple myeloma cell lines against the NCATS MIPE library collection: OCIMY1_PLB cell viability assay (AID 1918979); also: nearly all actives have a fitted effect of over 35% in size
# Method in brief: as §4
# Potency is read from the fitted curve at half-maximal effect; tags tell the direction and shape of the fitted curve.
smiles,measurement,setting,value
O=C1NC2CCCCN2C12CCN(CCCN1c3ccccc3CCc3ccc(Cl)cc31)CC2 (stereo not drawn),Potency,[1],"inconclusive: 35.5 µM [inhibitor, single point]"
same,Potency,[2],"inconclusive: 33.5 µM [cytotoxic, single point]"
same,Potency,[3],active: 30.9 µM
same,Potency,[4],"inconclusive: 21.1 µM [cytotoxic, single point]"
same,Potency,[5],"inconclusive: 29.9 µM [cytotoxic, single point]"
same,Potency,HaCat,"inconclusive: 16.4 µM [inhibitor, single point]"
same,Potency,KB-3-1,"inconclusive: 23.1 µM [inhibitor, single point]"
same,Potency,NIH3T3,"inconclusive: 23.7 µM [inhibitor, single point]"
same,Potency,MCC-13,"inconclusive: 29.9 µM [inhibitor, single point]"
same,Potency,MKL-1,"inconclusive: 26.6 µM [inhibitor, single point]"
same,Potency,WaGa,"inconclusive: 29.9 µM [inhibitor, single point]"
same,Potency,SKOV3,"inconclusive: 22.4 µM [cytotoxic, single point]"
O=C(O)c1cc(-c2ccccc2)nc2ccccc12,Potency,WaGa,inactive
same,Potency,SKOV3,"active: 28.2 µM and inconclusive: 11.2 µM [cytotoxic, partial curve, poor fit]"
N#Cc1ccnc(N2C(=O)CC[C@H]2C(=O)N(c2cncc(F)c2)[C@H](C(=O)NC2CC(F)(F)C2)c2ccccc2Cl)c1,Potency,HaCat,active: 23.4 µM
same,Potency,NIH3T3,"inconclusive: 11.7 µM [inhibitor, full curve]"
CN(C)c1cccc(-c2c3c(=O)n(-c4ccccc4Cl)[nH]c3cc(=O)n2C)c1,Potency,HaCat,active: 14.8 µM
same,Potency,SKOV3,inactive
CC(C)C[C@H](NC(=O)CNC(=O)c1cc(Cl)ccc1Cl)B(O)O,Potency,[1],active: 0.418 µM
same,Potency,[4],active: 0.743 µM
same,Potency,[5],active: 0.132 µM
same,Potency,[6],active: 0.059 µM
same,Potency,[7],active: 0.296 µM
same,Potency,[8],active: 0.418 µM
same,Potency,MKL-2,active: 0.264 µM
same,Potency,UISO,active: 0.59 µM
CC(C)(C)c1cnc(CSc2cnc(NC(=O)C3CCNCC3)s2)o1,Potency,[3],active: 0.385 µM
same,Potency,[4],"inconclusive: 2.35 µM [cytotoxic, full curve]"
same,Potency,[5],"inconclusive: 0.118 µM [cytotoxic, full curve, poor fit]"
same,Potency,[9],active: 0.132 µM
same,Potency,[10],active: 0.0743 µM
same,Potency,[11],active: 1.66 µM
same,Potency,[6],active: 0.296 µM
same,Potency,[8],active: 0.187 µM
same,Potency,HaCat,active: 1.32 µM
same,Potency,NIH3T3,active: 3.32 µM
same,Potency,MCC-13,"inconclusive: 20.9 µM [inhibitor, partial curve]"
same,Potency,MKL-1,"inconclusive: 0.264 µM [inhibitor, full curve]"
same,Potency,UISO,active: 0.743 µM
same,Potency,WaGa,"inconclusive: 0.418 µM [inhibitor, full curve, poor fit]"
CN(C)CC=CC(=O)Nc1cc2c(Nc3ccc(F)c(Cl)c3)ncnc2cc1O[C@H]1CCOC1,Potency,[2],active: 5.9 µM
same,Potency,[3],active: 21.7 µM
same,Potency,[4],active: 18.7 µM
same,viability (% of DMSO),[9],inconclusive: 14% [cytotoxic]
same,Potency,[11],active: 16.6 µM
same,max response,HaCat,inactive: -151%
same,Potency,MCC-13,"inconclusive: 18.7 µM [inhibitor, single point]"
same,Potency,MKL-1,active: 14.8 µM
same,Potency,MKL-2,active: 5.26 µM
same,Potency,UISO,active: 14.8 µM
COC(=O)C1=C(C)NC(C)=C(C(=O)OC(C)(C)CN(C)CCC(c2ccccc2)c2ccccc2)C1c1cccc([N+](=O)[O-])c1 (stereo not drawn),Potency,[1],"inconclusive: 31.6 µM [inhibitor, single point] and inconclusive: 35.5 µM [inhibitor, single point]"
same,Potency,[2],"inconclusive: 26.6 µM [cytotoxic, single point]"
same,Potency,[3],"inconclusive: 27.6 µM [cytotoxic, single point]"
same,Potency,[4],"inconclusive: 21.1 µM [cytotoxic, single point]"
same,Potency,[5],active: 18.8 µM
same,Potency,HaCat,"inconclusive: 29.9 µM [inhibitor, single point]"
same,Potency,KB-3-1,"inconclusive: 29.1 µM [inhibitor, single point]"
same,Potency,NIH3T3,"inconclusive: 23.7 µM [inhibitor, single point]"
same,Potency,MCC-13,"inconclusive: 16.8 µM [inhibitor, single point]"
same,Potency,MKL-1,active: 23.7 µM
same,Potency,MKL-2,"inconclusive: 16.8 µM [inhibitor, single point]"
same,Potency,UISO,"inconclusive: 21.1 µM [inhibitor, single point]"
same,Potency,SKOV3,"inconclusive: 31.6 µM [cytotoxic, single point]"
